Values quoted from earlier work in paper PMC11006913.
Some of the results follow.

Target: HOXD13 Q325R (Homo sapiens) (UniProt P35453)
UniProt P35453, sequence (P35453 263-343 Q325R): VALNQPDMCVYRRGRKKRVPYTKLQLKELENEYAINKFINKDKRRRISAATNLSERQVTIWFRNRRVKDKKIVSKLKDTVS
Conditions: PBM; conditions not shown; double strand, one strand shown; scale: upbm affinity estimate (log intensity, higher = more binding, comparable within an allelic series)
For ACTTTATA [8-mer ACTTTATA], the binding signal is listed as 12.
For AGTCTAAA [8-mer AGTCTAAA], the binding signal is given as 11.5.
For TGTCTAAA [8-mer TGTCTAAA], the binding signal is given as 12.
In the case of AGTTTTAT [8-mer AGTTTTAT], the binding signal is given as 12.2.
In the case of GCGATAAA [8-mer GCGATAAA], the binding signal is given as 12.
In the case of CGTCCAAA [8-mer CGTCCAAA], the binding signal is given as 11.4.
In the case of CTTTGTAC [8-mer CTTTGTAC], the binding signal is listed as 12.5.
In the case of GTACAAAA [8-mer GTACAAAA], the binding signal is given as 13.
For GTCTAAAA [8-mer GTCTAAAA], the binding signal is listed as 12.3.
In the case of TTGTACAA [8-mer TTGTACAA], the binding signal is given as 12.
For GGTTGTAC [8-mer GGTTGTAC], the binding signal is listed as 11.4.
For TGTATTAA [8-mer TGTATTAA], the binding signal is given as 12.1.
In the case of CGTGTAAA [8-mer CGTGTAAA], the binding signal is listed as 12.5.
For GTTTTAGA [8-mer GTTTTAGA], the binding signal is listed as 11.6.
For ATCTAAAA [8-mer ATCTAAAA], the binding signal is listed as 12.
For ATTAGTAC [8-mer ATTAGTAC], the binding signal is listed as 12.1.
In the case of GTACAAAC [8-mer GTACAAAC], the binding signal is listed as 12.8.
In the case of GGTACAAA [8-mer GGTACAAA], the binding signal is listed as 12.7.
For CGTACTAA [8-mer CGTACTAA], the binding signal is listed as 12.2.
In the case of AGTTGTAC [8-mer AGTTGTAC], the binding signal is listed as 11.6.
In the case of ACGTACAA [8-mer ACGTACAA], the binding signal is given as 11.9.
For TGGTACAA [8-mer TGGTACAA], the binding signal is given as 11.8.
For GTTTTGTA [8-mer GTTTTGTA], the binding signal is given as 12.
For AGGTACAA [8-mer AGGTACAA], the binding signal is given as 11.4.
For GGTCTAAA [8-mer GGTCTAAA], the binding signal is given as 11.6.
In the case of GTGTACAA [8-mer GTGTACAA], the binding signal is listed as 11.8.
For CGTACAAA [8-mer CGTACAAA], the binding signal is given as 12.9.
In the case of GGGTACAA [8-mer GGGTACAA], the binding signal is listed as 11.8.
